The term stoichiometry N denotes a count of units in the complex or per binding partner.

This data set concerns the molecule itself. In words: fluorescence intensity fluctuatio.

B1: Full-length EphA2 wild type tagged with mTurquoise or eYFP, on HEK293T cells (receptor, human)
chain: [… about 500 residues …]IGGVAVGVVLLLVLAGVGFFIHRRRKNQRARQSPEDVYFSKSEQLKPLKTYVDPHTYEDPNQAVLKFTTEIHPSCVTRQKVIGAGEFGEVYKGMLKTSSGKKEVPVAIKTLKAGYTEKQRVDFLGEAGIMGQFSHHNIIRLEGVISKYKPMMIITEYMENGALDKFLREKDGEFSVLQLVGMLRGIAAGMKYLANMNYVHRDLAARNILVNSNLVCKVSDFGLSRVLEDDPEATYTTSGGKIPIRWTAPEAISYRKFTSASDVWSFGIVMWEVMTYGERPYWELSNHEVMKAINDGFRLPTPMDCPSAIYQLMMQCWQQERARRPKFADIVSILDKLIRAPDSLKTLADFDPRVSIRLPSTSGSEGVPFRTVSEWLESIKMQQYTEHFMAAGYTAIEKVVQMTNDDIKRIGVRLPGHQKRIAYSLLGLKDQVNTVGIPI
notes: also called EphA2 WT; EphA2-mTurquoise
As for B1, the “stoichiometry N” value is 2.

(Values after paper PMC8454987 (PLoS Biology, 2021).)
